Paper PMC12040169 (PLOS Biology, 2025)
Some of the results follow.

What follows are compounds tested on T1, C. trachomatis L2/434/Bu expressing GFP (CTL2-GFP). Details: total inclusion area; 28.5 h, 10 µM; inhibitor.
T1 construct: L2/434/Bu GFP intracellular growth in HeLa cells
Parameters: species or system HeLa; C. trachomatis total inclusion area by high-content imaging, normalised to DMSO
Summary of the method: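 Following bulk GFP and resorufin fluorescence reads, infected cells were fixed, Hoechst-stained and imaged on a high-content platform. Inclusion total area and number per well served as growth proxies; nuclei counts indicated host viability. MICs were derived as for the fluorescence assay.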

Compound | % of control remaining
CCc1nc2ccc(C(=O)N(C)CCN(C)C)cn2c1N(CC)CCOC [CBK146018] | 101.445
CCCCN1C(=O)N(c2nnc(C(C)(C)C)s2)C(=O)C1c1ccc(Cl)c(Cl)c1 (centres unmarked) [CBK085921] | 82.1029
Cc1ccc(S(=O)(=O)CC(=O)N2CCCC3(CCN(Cc4ccccc4)C3)C2)cc1 (centres unmarked) [CBK137098T] | 123.942
O=c1[nH]c(=O)c2c3c(sc2[nH]1)CCCC3 [CBK027724] | 29.5527
CCN(Cc1c[nH]nc1-c1ccc(OC)cc1F)CC1CCCO1 (centres unmarked) [CBK307350] | 72.7088
O=C1CC(Sc2ccccc2)C(=O)N1c1ccc(Cc2ccc(N3C(=O)CC(Sc4ccccc4)C3=O)cc2)cc1 (centres unmarked) [CBK263797] | 93.5226
CCOC(=O)c1sc2nc(C)ccc2c1N [CBK115377] | 88.4216
Cc1cc(Br)ccc1S(=O)(=O)N(C)c1ccc(N2CCNCC2)c2ccccc12 [CBK016170C] | 7.348
COc1cccc(Oc2nccnc2/C=C/c2ccccc2)c1 [CBK106877] | 93.2992
COc1ccc(C)cc1C(O)CN1CCOC(c2ccc(F)cc2)C1 (centres unmarked) [CBK298264] | 106.091
CC(C)C1c2cccn2CCN1C(=O)c1cc(-c2ccccn2)n[nH]1 (centres unmarked) [CBK283223] | 114.09
Fc1ccc(CCNC(=S)NC2CCCC2)cc1 [CBK266175] | 76.2427
CCOC(=O)c1sc(NC(=O)Nc2cccc(Cl)c2)c(C(N)=O)c1C [CBK262658] | 91.3282
Cc1cccc(-c2nccnc2C2CCCN(C(=O)COc3ccc(F)cc3)C2)c1 (centres unmarked) [CBK286241] | 99.6718
O=S(=O)(Nc1nccnc1-c1cccs1)C1CC1 [CBK050764] | 137.484
COc1ccccc1Cc1noc(COc2cccc(C)c2C)n1 [CBK265521] | 64.2233
O=C(O)COc1cccc(NS(=O)(=O)c2ccc(Br)cc2)c1 [CBK286911] | 86.0045
Cc1ccc(S(=O)(=O)N(CC(=O)Nc2ccc(Cl)cc2C)c2cccc(Cl)c2C)cc1 [CBK264021] | 102.773
CC(C)CC(C(=O)O)N1C(=O)/C(=C2/C(=O)Nc3ccc(Br)cc32)SC1=S (centres unmarked) [CBK261610] | 97.5483
CN(C(=O)c1ccco1)c1nc2c(s1)CCc1c-2cnn1C [CBK281928] | 57.3061
CC(=O)Nc1cccc(-n2nnnc2SC2CCCCC2=O)c1 (centres unmarked) [CBK304600] | 20.591
Cc1nn(-c2ccc(F)cc2)c2[nH]c(=O)c(CNC(C)C)cc12 [CBK283119] | 78.0834
COc1ccc2c(c1)sc1ncc(C#N)n12 [CBK016716] | 80.1299
COc1cc(/C=C2/SC(=S)N(CC(=O)O)C2=O)cc(Br)c1OCc1ccccn1 [CBK265598] | 92.8376
COc1ccc(Br)cc1C(=O)NC(=S)Nc1cc(Cl)c(O)c(Cl)c1 [CBK265979] | 78.8413
CC(C)C(NS(=O)(=O)c1ccc(Oc2ccccc2Cl)cc1)C(=O)O (centres unmarked) [CBK267195] | 120.441
COC(=O)CCc1ccc(S(=O)(=O)N2CCCN(Cc3ccc(Cl)c(C(F)(F)F)c3)CC2)cc1 [CBK062995] | 37.3616

Compound | % of control remaining
O=C(O)c1ccc(C(=O)O)c2c(-c3ccc(C(=O)O)c4c(C(=O)O)ccc(C(=O)O)c34)ccc(C(=O)O)c12 [CBK261267] | 98.0305
Cn1c(-c2ccccc2)cnc1NC(=O)C1CCN(S(=O)(=O)c2ccc(F)cc2)C1 (centres unmarked) [CBK285709] | 91.3434
CCO[C@H]1CN(C)C[C@@H]1NC(=O)c1cccc2c1NCCC2 [CBK307269] | 68.5108
Cc1cccc(OCC(=O)Nc2ncccc2OCCCC#N)c1 [CBK305918] | 72.0294
COc1ccc(-c2cc(C(F)(F)F)nc(SCC(=O)Nc3cccnc3)n2)cc1OC [CBK266148] | 116.469
COc1cccc(OCCOc2nsnc2N2CCNCC2)c1 [CBK200007] | 95.0775
Fc1ccc(CNc2cncc(-c3cc4ccccc4o3)n2)cc1 [CBK066005] | 112.632
Cc1cc(C)cc(N(CC(=O)Nc2ccc(C)c(Cl)c2)S(=O)(=O)c2ccccc2)c1 [CBK264109] | 79.6543
COc1ccc(-c2ncc(OCC3CCCN3C)nc2N)c(OC)c1 (centres unmarked) [CBK145091] | 85.4259
CCOC(=O)CCNC(C)C1COc2ccccc2O1 (centres unmarked) [CBK074284G] | 94.2256
Cc1ccccc1-n1ccn(S(=O)(=O)c2ccccc2)c1=O [CBK106567] | 109.78
NS(=O)(=O)c1ccc(NCc2cc(Cl)ccc2OCc2ccc(F)cc2)cc1 [CBK268196] | 102.911
CC(=O)NCCSc1nccnc1NC(C)C [CBK105289] | 76.651
CC(C)(O)C#Cc1ccc(C(=O)N2CCN(C/C=C/c3ccccc3)CC2)s1 [CBK267007] | 90.9082
O=[N+]([O-])c1cc(C(F)(F)F)ccc1N(CCO)CCO [CBK262238] | 95.7216
CN(C)C(=O)c1ccc(-c2ncc(OCCN3CCCC3=O)nc2N)cc1 [CBK145184] | 107.205
Cc1nn(CCn2cncc2-c2cnn(C)c2)c(C)c1C [CBK281783] | 118.057
CCCN1CC(NS(=O)(=O)c2ccnn2CCC)CC1=O (centres unmarked) [CBK306598] | 68.7143
O=C(O)c1cc(-c2ccc(/C=C3\SC(=S)N(Cc4cccnc4)C3=O)o2)ccc1Cl [CBK264712] | 100.981
Cc1cn2c(=O)c(C(=O)Nc3ccccc3C)cnc2s1 [CBK287710] | 101.505
O=C(c1cn2ccccc2n1)N1CCC(c2ccccc2)C1 (centres unmarked) [CBK281850] | 94.3021
Oc1cccc(Sc2cncc(N3CCCC3)n2)c1 [CBK093796] | 99.3757
COC(=O)CCc1ccc(S(=O)(=O)N2CCCN(Cc3cccc(C(F)(F)F)c3)CC2)cc1 [CBK062983] | 80.2978
CCN(Cc1cccs1)C(=O)NC1CCCc2c1cnn2CCO (centres unmarked) [CBK305768] | 100.403
O=S(=O)(Nc1cccc(O)c1)c1ccc(OC(F)(F)F)cc1 [CBK043822] | 97.3647
Cc1ccc2c(C)c(-c3cncn3C(C)CN3CCOCC3)oc2c1 (centres unmarked) [CBK281796] | 101.754
CN1CCN(C(=O)CNS(=O)(=O)c2ccc(Br)cc2)CC1 [CBK034478] | 78.7021

Compound | % of control remaining
Cc1cc(C)n2nc(CCCOC(=O)c3ccn(C(C)C)n3)nc2n1 [CBK305272] | 40.4775
CN(C)C(=O)CN1CCN(CCc2ccccc2)CC1 [CBK126455] | 97.4629
COc1ccc(Br)cc1/C=N/NC(=O)CC1C(=O)NN=C1C (centres unmarked) [CBK263359] | 90.5731
COCCOC(=O)C1=C(C)NC2=C(C(=O)CC(c3ccc(OC)cc3)C2)C1c1ccc(F)cc1 (centres unmarked) [CBK293921] | 78.4115
O=C(CSc1nnc(Cc2cccc3ccccc23)n1-c1ccccc1)NC1CC1 [CBK267382] | 108.228
CCC(C)(NC=O)C(=O)Nc1ccccc1C(=O)O (centres unmarked) [CBK287177] | 90.2901
COc1ccc(S(=O)(=O)N2CCC(C(=O)N3CCN(Cc4ccc5c(c4)OCO5)CC3)CC2)cc1Cl [CBK267614] | 100.588
COc1ccc(C(=O)Nc2nc3ccc(NC(C)=O)cc3s2)cc1OC [CBK287311] | 103.143
O=C(CSc1ccc2nnc(-c3ccccc3)n2n1)Nc1nccs1 [CBK287516] | 68.3894
CC(C)NC(=O)[C@H]1O[C@H](CCN2CCN(c3ccccc3)CC2)CC[C@@H]1O [CBK288719] | 100.531
Cc1cc(=O)n2c3c(cc(S(=O)(=O)NCC4CCCO4)cc13)CC2 (centres unmarked) [CBK307595] | 47.0497
CCCS(=O)(=O)n1ccn(-c2cccc(C(F)(F)F)c2)c1=O [CBK106585] | 88.7058
N#Cc1ccc(CN2CCOC3(CCN(C(=O)OCc4ccccc4)CC3)C2)cc1 [CBK161103T] | 35.4565
CCCc1ccc(S(=O)(=O)n2ccn(-c3ccc(Oc4ccccc4)cc3)c2=O)cc1 [CBK106648] | 93.7995
O=C(CSc1ncnc2ccccc12)NCc1ccco1 [CBK287509] | 90.855
Cc1ccccc1OCc1nnc(SCC(=O)N2CCOCC2)n1C [CBK265850] | 84.9816
COc1ccc(C(c2ccccc2C)N(C)C(=O)C2CCNCC2)cn1 (centres unmarked) [CBK074124] | 35.272
O=C(O)COc1ccc(Br)cc1C(c1c[nH]c2ccccc12)c1c[nH]c2ccccc12 [CBK265720] | 105.364
Brc1ccc(Nc2ncnc3[nH]cnc23)cc1 [CBK287386] | 101.622
Cc1cc([N+](=O)[O-])cc[n+]1[O-] [CBK261014] | 70.7263
CC(C)(C)OC(=O)N1CCC[C@H]1C(=O)c1cccnc1 [CBK284280] | 41.6692
COc1ccc(-c2cc(C(=O)N3CCC(S(C)(=O)=O)C3)cnc2-c2ccccc2)cn1 (centres unmarked) [CBK036706] | 120.185
Cc1nc(C2CN(c3ccnc4c(F)cccc34)CCO2)no1 (centres unmarked) [CBK304464] | 16.9741
Cc1ccc(-c2ncc(OCCN(C(C)C)C(C)C)nc2N)cc1C [CBK145150] | 100.325
O=C1CSC2(C(=O)Nc3ccccc32)N1c1ccc([N+](=O)[O-])cc1 (centres unmarked) [CBK026035] | 78.2
Cc1[nH]nc2nc(-c3cc(Br)ccc3O)cc(C(=O)O)c12 [CBK286834] | 132.287
